# Measured values reported in paper PMC10668032.
# This is one part of the list. At the low end of the ranking the order means little.
# Target: SIX1 homeodomain (reference allele) (UniProt Q15475)
# Experiment: universal protein binding microarray
# Settings: Universal all-10-mer PBM (8x60K, AMADID 030236), 300 nM GST-tagged protein, Alexa Fluor 488 anti-GST; buffer, salt, pH and temperature not stated; high values mean tight binding; most listed sequences are background and not binding sites; double strand, one strand shown
row,Sequence,binding signal [E-score]
1,ACGTGAAC,-0.206
2,ATATAATG,0.126
3,ACTATTCC,-0.0871
4,ACTAAAAC,-0.107
5,ACCTATCA,0.336
6,CAGTGTAA,-0.117
7,AGCGCCCC,-0.192
8,GCGGTCCC,-0.204
9,GTCTCTCA,-0.129
10,CTCTTACA,-0.0377
11,AGTTTTAA,-0.0746
12,GCGCCTCA,-0.223
13,CTTTAGCA,-0.231
14,CCCGCTAG,-0.0925
15,TAAAGGTA,0.147
16,CGCGTTAC,-0.174
17,AGCCCTAC,-0.0572
18,GCATCTGA,-0.0879
19,ACTTAAAC,-0.116
20,GGAAGAAA,-0.324
21,ACGAGAGC,-0.063
22,TTCTTCAA,-0.0878

row,Sequence,binding signal [E-score]
1,ACCTCCGT,-0.026
2,CGACAGGA,-0.013
3,CCTCAATA,-0.0599
4,GACGACCC,-0.132
5,GTGCTCTA,-0.0497
6,AACTTCCT,-0.273
7,CGGCCAAA,-0.136
8,AACAGATT,-0.202
9,CTATGAGA,0.177
10,TACCACCA,0.11
11,AGTAGCCC,0.00485
12,GTAATGCA,-0.182
13,CCTTCATA,0.0288
14,ACAATCCA,0.0916
15,AGATCAAA,0.188
16,AACTACGG,-0.0499
17,CTGTATTA,0.18
18,CAAGACTA,-0.16
19,GATAACTA,0.154
20,ACATGAAA,-0.14
21,ATTTAAGG,-0.224
22,ACAGTATC,0.402

row,Sequence,binding signal [E-score]
1,AATCTCTC,-0.0404
2,TGATGAAA,-0.114
3,CTAGGTCC,-0.159
4,GGTGACCA,-0.244
5,CATGTTAC,-0.133
6,ACCACAAA,-0.00173
7,AACGCTCC,-0.204
8,ACCATTAC,-0.0166
9,CTTGACCC,-0.178
10,CTCGACCA,-0.153
11,ACACCACC,0.293
12,CCTATGCA,0.073
13,ACGCAAAT,-0.12
14,AATCAAGG,0.0699
15,CCCAAGCC,0.0122
16,ACTTGGTC,-0.0583
17,CGCAACGA,0.0268
18,CTTGAACC,0.107
19,AGATAACG,0.191
20,TAAGTAGA,0.0777
21,CCCGCGCG,-0.209
22,TCCAAAAA,-0.139

row,Sequence,binding signal [E-score]
1,GCGGTCCA,-0.155
2,ATACTGGG,0.225
3,CTTTTATC,-0.13
4,AAGGCCAT,-0.209
5,GGGAGGTA,0.136
6,TAACCGTA,0.0921
7,AAGGCGAC,-0.138
8,GAAAGATC,0.169
9,ATGGCCAT,-0.166
10,ATTTAGAG,-0.127
11,CTGCGGCA,-0.281
12,GTATTCAA,0.248
13,GCAATTTA,0.00713
14,CCCCTCGA,0.173
15,CCAGTGTA,0.106
16,AAAGTAGC,-0.13
17,ACGGTTAA,-0.187
18,GGAATGAC,-0.0861
19,CTTTCTGA,-0.129
20,CTGGAGGA,0.00889
21,AGGGGCCC,-0.19
22,CGGGAATC,0.0991

row,Sequence,binding signal [E-score]
1,AGATGTTA,-0.0543
2,GGCGCCAC,-0.363
3,ATTCAGCA,-0.216
4,CATCGACG,-0.212
5,GCCTAATA,0.167
6,GCCTTTTA,-0.0588
7,ATCATCGG,0.365
8,ACGGCTTC,-0.158
9,CGCTCTCC,-0.0131
10,AGGACAAG,-0.118
11,CGCCATAG,0.0355
12,AGAGCACT,0.0687
13,CTTACGGC,-0.249
14,CGCATCAC,-0.0152
15,CTGTTCCA,-0.259
16,AGATTGGG,0.0831
17,AACGCTAT,0.0497
18,CGTCACTC,-0.267
19,ACATAGTG,0.0165
20,GTTGAATA,0.0184
21,AAAAGCCG,-0.0824
22,GCTCGCCA,-0.202
